Among all 310,000 compounds or so, about 2,200 (0.71%) showed an effect of 50% or more. The effect is printed as a negative number. The list shows a part of the results.
Each molecule was assayed against human ether-à-go-go-related gene (hERG) potassium channel (human, UniProt Q12809) (assay: primary screen, population patch clamp on CHO cells stably expressing hERG).
Chain of human ether-à-go-go-related gene (hERG) potassium channel (Q12809 whole entry, looked up): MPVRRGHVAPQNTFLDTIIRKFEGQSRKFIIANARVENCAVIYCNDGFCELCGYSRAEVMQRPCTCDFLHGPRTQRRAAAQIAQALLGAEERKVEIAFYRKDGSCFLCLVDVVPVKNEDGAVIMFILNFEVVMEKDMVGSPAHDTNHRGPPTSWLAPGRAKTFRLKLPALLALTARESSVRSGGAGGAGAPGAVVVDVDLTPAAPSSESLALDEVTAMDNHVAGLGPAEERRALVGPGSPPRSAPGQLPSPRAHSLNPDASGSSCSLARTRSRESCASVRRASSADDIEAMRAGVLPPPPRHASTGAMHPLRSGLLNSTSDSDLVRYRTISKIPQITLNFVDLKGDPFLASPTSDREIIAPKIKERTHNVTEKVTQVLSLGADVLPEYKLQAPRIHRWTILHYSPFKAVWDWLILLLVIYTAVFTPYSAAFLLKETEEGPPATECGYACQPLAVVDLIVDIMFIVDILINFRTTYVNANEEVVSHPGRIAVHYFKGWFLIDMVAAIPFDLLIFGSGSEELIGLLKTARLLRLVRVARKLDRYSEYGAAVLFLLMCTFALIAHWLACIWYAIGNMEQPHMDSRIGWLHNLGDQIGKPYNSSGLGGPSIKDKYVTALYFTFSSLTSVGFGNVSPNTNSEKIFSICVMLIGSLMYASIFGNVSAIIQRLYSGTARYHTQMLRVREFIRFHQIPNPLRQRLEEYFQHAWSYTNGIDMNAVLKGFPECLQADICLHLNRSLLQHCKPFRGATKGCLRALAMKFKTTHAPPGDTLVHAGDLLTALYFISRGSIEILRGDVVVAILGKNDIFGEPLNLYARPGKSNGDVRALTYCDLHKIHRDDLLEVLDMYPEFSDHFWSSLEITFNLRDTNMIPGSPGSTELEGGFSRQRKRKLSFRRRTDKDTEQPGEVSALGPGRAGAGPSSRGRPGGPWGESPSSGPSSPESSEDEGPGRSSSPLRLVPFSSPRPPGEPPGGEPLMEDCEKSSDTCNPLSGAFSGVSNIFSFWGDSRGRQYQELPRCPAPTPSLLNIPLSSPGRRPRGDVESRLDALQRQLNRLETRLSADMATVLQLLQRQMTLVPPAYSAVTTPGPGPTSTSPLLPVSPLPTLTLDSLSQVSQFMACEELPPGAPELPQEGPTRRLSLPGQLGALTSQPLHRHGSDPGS

| Structure (SMILES) | hERG current change (%, negative = inhibition) at 1uM [%] |
| --- | --- |
| Cc1nnc2ccc(-c3cccc(NC(=O)Cc4cccs4)c3)nn12 | -0.401 |
| CCc1ccc2[nH]c(=O)c(CN(CCCN3CCOCC3)C(=O)Nc3ccccc3)cc2c1 | -4.38 |
| COc1ccc(N2CCN(C(C)C(=O)N(C)Cc3ccccc3)CC2)cc1 (centres unmarked) | -10 |
| Cc1ccc(/C=C/C2=NN(Cc3ccccc3Cl)C(=O)CC2)cc1 | 8.51 |
| CCS(=O)(=O)Nc1cccc(-c2cc(-c3ccccc3)c3cc(C)ccc3n2)c1 | 12.8 |
| COc1ccc(C(=O)Nc2nc3ccc4nc(C)sc4c3s2)cc1 | 16.7 |
| COc1ccc(NC(=O)CN(C)C(=O)Cc2ccsc2)cc1 | 13 |
| O=C(Nc1ccc(F)cc1F)c1noc2c1CCC2 | -2.34 |
| O=C(O)CC(c1cccc2ccccc12)N1Cc2ccccc2C1=O (centres unmarked) | 11.4 |
| CCc1sc(C(=O)NNC(=O)CNC(=O)c2ccccc2F)cc1C | 5.79 |
| COc1cc(NC(=O)c2nccn2C)cc(C(=O)Nc2cccc(C(F)(F)F)c2)c1 | 3.05 |
| CCc1c(C)sc2nc3c(C(=O)N4CCOCC4)cc(C(=O)c4ccccc4O)cn3c(=O)c12 | 2.15 |
| CC(C)(C)NS(=O)(=O)c1ccc(OCC(=O)Nc2ccc3c(c2)OCCO3)cc1 | 9.4 |
| Cc1oc2c(c1C(=O)NCc1cc(C(=O)O)co1)CCCC2 | -11 |
| Cc1cccc(N=Cc2cc(Br)cc(Cl)c2O)c1 | 18.7 |
| O=C(NCc1ccncc1)C1CCCN(S(=O)(=O)Cc2ccccc2)C1 (centres unmarked) | 9.39 |
| CN(C)C(CNC(=S)Nc1cccc(Cl)c1)c1cccnc1 (centres unmarked) | 11 |
| Cc1c(Cl)cccc1NC(=O)COC(=O)c1ccc(CN2CCCC2=O)cc1 | 15.6 |
| O=C(O)c1cccc(NS(=O)(=O)c2ccc3c(c2)OCCCO3)c1 | 15.5 |
| CSc1ccccc1OCc1cc(C(=O)NC(C)c2cnn(C)c2)no1 (centres unmarked) | 5.57 |
| Cc1c(Cl)cccc1NC(=O)C1Cc2ccccc2CN1C(=O)c1ccccc1 (centres unmarked) | 9.61 |
| O=C(NCCc1ccccc1)c1ccc2c(c1)N(Cc1ccccc1)CCS2 | 7.91 |
| Clc1ccc(-c2nc(Cc3ccccc3)no2)cc1 | 9.81 |

| Structure (SMILES) | hERG current change (%, negative = inhibition) at 1uM [%] |
| --- | --- |
| COC(=O)c1c(NC(=O)c2c(Cl)cnn2C)sc(C)c1C | 14.9 |
| CN1CCN(CC(=O)Nc2ccc(Cl)cc2C(=O)c2ccccc2)CC1 | -83.3 |
| Cc1csc(SCC(=O)Nc2nnc(C)s2)n1 | 15.4 |
| CC(C)c1ccccc1NS(C)(=O)=O | 16.9 |
| O=C(CCC(=O)c1cccs1)NCc1ccc(F)cc1 | 3.77 |
| COc1ccc(/C=C/C(=O)NCCCN2CCOCC2)cc1 | 4.07 |
| COc1ccccc1CNC(=O)Cn1c(=O)c2cccn2c2cccnc21 | 12.3 |
| CC(=O)NCc1ccc(-c2csc(NC(=O)CCCc3nc4ccccc4c(=O)[nH]3)n2)cc1 | 4.39 |
| O=C(C1CC1)N1CCC(C(O)(c2ccccc2)c2ccccc2)CC1 | 3.38 |
| Cc1ccc(-c2nnc(-c3cc(C)on3)o2)cc1 | 18.4 |
| COc1ccc(OC)c(S(=O)(=O)N2CCN(Cc3ccccc3)CC2)c1 | 15 |
| Cc1ccc(Cl)cc1N1CCN(C(=O)Cc2cn(C)c3ccccc23)CC1 | 13.8 |
| CC1CCCN(C(=O)CCS(=O)(=O)c2ccc3c(c2)NC(=O)C(C)S3)C1 (centres unmarked) | 11.1 |
| CC1(C)Cc2c(c(=S)nc(-c3ccccc3)n2CCCN2CCOCC2)CO1 | 9.6 |
| O=C(CCc1n[nH]c(=O)[nH]c1=O)Nc1cccc([N+](=O)[O-])c1 | 16.9 |
| O=S(=O)(Nc1cccc(S(=O)(=O)N2CCCCCC2)c1)c1ccccc1 | 6.69 |
| Cc1ccc(CNC(=O)C(=O)NCC2OCCN2C(=O)c2cccs2)cc1 (centres unmarked) | 2.77 |
| Cc1ccc(NC(=O)CN(C)C(=O)c2cccc(S(=O)(=O)N3CCCC3)c2)cc1 | 11.2 |
| Cn1c(=O)oc2cc(S(=O)(=O)Nc3ccc(O)cc3)ccc21 | 14.7 |
| Cc1c(C(=O)NC(Cc2ccccc2)c2nc3ccccc3[nH]2)cccc1[N+](=O)[O-] (centres unmarked) | 8.01 |
| CCCN1C(=O)C2(/C(=C(\O)c3ccc4c(c3)OCCO4)C(=O)C(=O)N2CCCOC)c2ccccc21 (centres unmarked) | -3.16 |
| Cc1ccc(SCCN2CCN(CCc3ccccc3)CCC2=O)cc1 | -39.3 |
| CC(=O)c1ccc(NC(=O)NC2CCCCCCC2)cc1 | 10.8 |

| Structure (SMILES) | hERG current change (%, negative = inhibition) at 1uM [%] |
| --- | --- |
| Cc1ccccc1-n1c(SCC(=O)NCc2cccs2)nc2ccccc2c1=O | 3.82 |
| COc1cccc(-c2nc(CS(=O)CC(=O)N3CCC4(CC3)OCCO4)c(C)o2)c1 (centres unmarked) | 7.84 |
| Fc1ccccc1N1CCN(CC2CCCCC2)CC1 | 16.2 |
| CC(C)(C)C(=O)Nc1ccccc1C(=O)NCCCn1ccnc1 | 3.25 |
| COc1cc(/C=N/Nc2nc(Nc3ccccc3)nc(-n3nc(C)cc3C)n2)cc(OC)c1OC | -5.71 |
| C/C(N)=C(/C#N)C(=O)CSc1nnc(-c2ccc3c(c2)OCO3)o1 | 20.4 |
| COc1ccc(S(=O)(=O)NC(Cc2cnc[nH]2)C(=O)O)cc1 (centres unmarked) | 20.4 |
| COc1ccc(C(=O)CN2CCN(S(=O)(=O)c3cccc([N+](=O)[O-])c3)CC2)cc1OC | 3.44 |
| Cc1ccc(O)c(N=Nc2ccc(S(=O)(=O)N3CCOCC3)cc2)c1 | 14.2 |
| Cc1ccc(C(=O)COc2ccc3ccc(=O)oc3c2)cc1 | 43.3 |
| CNC(=O)c1ccc(S(=O)(=O)c2ccc(Cl)cc2)c(NC(C)=O)c1 | 17.5 |
| COCCNC(=O)NC(=O)COC(=O)c1ccc2[nH]c3c(c2c1)CCCC3 | 6.92 |
| COc1ccc(OC)c(C2=NO[C@@H]3C(=O)N(c4cc(Cl)ccc4OC)C(=O)[C@H]23)c1 | 4.33 |
| CCc1ccc(Oc2nc([N+](=O)[O-])nn2C)cc1 | 7.02 |
| O=C(NCC1CCCO1)C1CCN(S(=O)(=O)c2ccccc2)CC1 (centres unmarked) | 10.1 |
| CCCCn1c(N)c(N(CCC(C)C)C(=O)c2ccc([N+](=O)[O-])s2)c(=O)[nH]c1=O | -4.63 |
| Cc1sc2ncnc(OCC(=O)NCC3CCCO3)c2c1C (centres unmarked) | 15.2 |
| CCCCCc1nnc(NC(=O)c2cccc(S(=O)(=O)N3CCOCC3)c2)s1 | 3.59 |
| C=CCNC(=O)c1ccccc1NC(=O)COc1ccccc1 | 7.77 |
| COc1cccc(Nc2nc(N)nc(CCl)n2)c1 | 10.8 |
| Nc1ccc(N2CCN(C(=O)c3cccs3)CC2)cc1 | 11.3 |
| O=C(NCCN1CCCCC1)/C(=C/c1ccco1)NC(=O)c1ccccc1 | -0.663 |
| CCOC(=O)C1CCN(C(=O)CCc2c(C)nc3c(-c4ccc(F)cc4)c(C)nn3c2C)CC1 | -32.2 |

| Structure (SMILES) | hERG current change (%, negative = inhibition) at 1uM [%] |
| --- | --- |
| Cc1cc(C)cc(NC(=S)N2CCC(c3nc4ccccc4s3)CC2)c1 | 11 |
| O=C(CSCc1ccccc1)Nc1cc([N+](=O)[O-])ccc1F | 15.1 |
| Cl.NNC(N)=O | 6.55 |
| CCN(CC)CCNC(=O)Cn1nc(Cc2ccncc2)c2ccccc2c1=O | 5.65 |
| Cc1ccccc1SCC(=O)OCC(=O)N(C)c1c(N)n(Cc2ccccc2)c(=O)[nH]c1=O | 1.71 |
| CCOC(=O)c1c(C)[nH]c(C)c1S(=O)(=O)Nc1ccc(CN2CCCCC2)cc1 | 17.3 |
| CSc1cccc(CN2CCCC(C(=O)Nc3cccc(-n4cccn4)c3)C2)c1 (centres unmarked) | 4.66 |
| O=C(Nc1ccccc1)N1CCCN(c2ccc(C(F)(F)F)cn2)CC1 | -8.06 |
| O=C(COC(=O)c1cc(=O)[nH]c(=O)[nH]1)Nc1cccc(S(=O)(=O)N2CCOCC2)c1 | 6.94 |
| O=C(CN1C(=O)NC2(CCCCCC2)C1=O)N1CCN(c2ccccc2)CC1 | 12.3 |
| COc1ccc(CCCC(=O)N/N=C/c2ccc(C)cc2)cc1 | 11.7 |
| COc1ccccc1OCC(=O)N1CCN(C(=O)COc2ccccc2OC)CC1 | 9.19 |
| COCC(=O)N(Cc1ccccc1)c1ccccn1 | -3.95 |
| O=C(NC1CCCC1)C1C2C=CC(C2)C1C(=O)N1CCOCC1 (centres unmarked) | 3.68 |
| COC(=O)c1ccc(NC(=O)NS(=O)(=O)c2ccc(C)cc2)cc1 | 6.88 |
| O=C(NNC(=O)c1ccccc1Br)c1ccc(SCC2CCCO2)c([N+](=O)[O-])c1 (centres unmarked) | -0.748 |
| CC1CC1C(=O)OCC(=O)NCc1ccc(Cl)cc1 (centres unmarked) | 11.6 |
| O=C(Cn1cnc2c(oc3ccccc32)c1=O)N1CCCC1 | 12.5 |
| Cc1ccccc1/C=C/c1cc[n+](C)cc1.[I-] | 10.5 |
| Cc1ccc(-n2c(SCC(=O)N/N=C/c3ccc(C)s3)nnc2-c2ccccc2)cc1 | 7.01 |

Reference: PMC4336329 (PLoS ONE, 2015)
